Screen size: about 52,000 compounds; about 4,300 (8.3%) were called active. No stated cut-off is given here; in the data, active means survival mostly below about 52% (no sharp cut-off); inactive means mostly above about 56%. The list shows a part of the results.

This assay concerns DeltatarO mutant. Briefly: S. aureus survival, RN4220 and DeltatarO strains – OD600, teichoic acid synthesis inhibitors, primary screen (AID 463173). The following applies: S. aureus RN4220 wild type/DeltatarO growth, OD600, 18 h, stronger effect = lower value, screened at 18.75 µg/mL (by protocol).
`Oc1cccc(/C=N/N=C/c2cccc(O)c2O)c1O`: the survival was inactive: 110%.

Regarding `COc1ccc(C)cc1NC(=O)c1c2c(nc3ccccc13)C(=O)N(C1CCCCC1)C2`, the survival was inactive: 63%.

Consider `Cc1ccc(Cl)cc1NC(=O)C(Cc1ccccc1)NS(=O)(=O)c1cccc2nsnc12` (stereo not drawn), for which the survival was inactive: 79%.

As to `CCN(C(=O)CSc1ncc2c(n1)-c1cc(Cl)ccc1N(Cc1ccccc1)S2(=O)=O)c1cccc(C)c1`, the survival was inactive: 83%.

`CCc1c(C)sc2c1CCN(C(=O)Nc1ccccc1C(=O)OC)C2c1ccc(OC)cc1` (stereo not drawn): the survival was inactive: 92%.

Turning to `Cc1ccc(NS(=O)(=O)c2ccc3c(c2)CC(=O)N3)cc1Cl`, the survival is active: 47%.

Turning to `COc1ccc(OC)c(C2Nc3c(C)cc(C)cc3-c3cc(C)nn32)c1` (stereo not drawn), the survival is active: -3%.

Take `CCOc1ccccc1NC(=O)Cn1ncc2c([nH]c3ccccc32)c1=O`: the survival is inactive: 126%.

Take `CCn1c(=O)c2cc(C(=O)NCCCN3CCN(c4ccc(F)cc4)CC3)sc2c2ccccc21`: the survival was inactive: 58%.

As for `O=C(NCc1ccccc1)C1CCN(C(=O)NCc2ccccc2)CC1`, the survival was inactive: 90%.

With `O=C1/C(=C/c2ccco2)SC(=S)N1CCc1ccccc1`, the survival was inactive: 95%.

Take `Cc1ccccc1OCC(=O)Nc1nnc(S(=O)(=O)N2CCCC2)s1`: the survival was active: 42%.

For the compound `CC(C)Oc1ccc(CNC(=O)c2ccc3c(c2)nc2n3CCCCC2)cc1`, the survival is inactive: 91%.

As for `COc1cc(OC)c(NC(=O)c2c(N3CCCC3=O)c3cc(C)ccc3n2C)cc1Cl`, the survival was inactive: 67%.

Take `COc1ccc(OC)c(CNC(=O)c2ccc3nc(C(C)C)oc3c2)c1`: the survival is inactive: 91%.

For the compound `COc1ccc(Cl)cc1C(=O)Nc1ccc2nc(Nc3cccc(Cl)c3)cc(C)c2c1`, the survival is inactive: 93%.

On to `CCCc1ccc(S(=O)(=O)N2CCC(c3nnc(-c4cccc(C)c4)o3)CC2)cc1`, for which the survival is inactive: 75%.

In the case of `Cc1cccc(N2C(=O)CSC23C(=O)N(CC(=O)Nc2cccc(Cl)c2)c2ccccc23)c1` (stereo not drawn), the survival was inactive: 100%.

Consider `CC1CCN(S(=O)(=O)c2cc3c4c(c2)C(C)C(=O)N4CCC3)CC1` (stereo not drawn), for which the survival is inactive: 107%.

With `C=C/C=C(\C=C(C)C)N(C(=O)NC1CCCCC1)C1=NCCCS1`, the survival is inactive: 102%.

For `O=C(NC1CCCCCC1)C1c2ccccc2C(=O)N1Cc1ccc(F)cc1` (stereo not drawn), the survival was inactive: 111%.

As for `COc1ccccc1CCN1COc2c(cc3c(C)c(C)c(=O)oc3c2C)C1`, the survival was inactive: 103%.

Regarding `O=C(NCc1ccco1)C(c1cccs1)N(C(=O)C1COc2ccccc2O1)c1cccc(O)c1` (stereo not drawn), the survival is inactive: 63%.

In the case of `COc1ccc(CNC(=O)CN2C(=O)CSc3ccc(S(=O)(=O)N(C)C)cc32)cc1`, the survival was inactive: 124%.

Regarding `CCOC(=O)C1CCN(c2cc(C)c(C#N)c3nc4ccccc4n23)CC1`, the survival is inactive: 100%.

As to `Cc1cc(=O)n2nc(N3CCC(C(=O)Nc4c(C)cccc4C)CC3)sc2n1`, the survival was inactive: 114%.

Consider `Nc1c(C(=O)Nc2cccc(F)c2)nnn1-c1cccc(C(F)(F)F)c1`, for which the survival was inactive: 75%.

Consider `CCOC(=O)C(Cc1ccccc1)N1C(=O)c2ccccc2C1=O` (stereo not drawn), for which the survival is inactive: 71%.

Turning to `CCc1cccc(NC(=O)Cn2c(=O)n(CCC(=O)NCc3ccccc3Cl)c(=O)c3sccc32)c1`, the survival is inactive: 76%.

Consider `CCOc1nc(C)c(/C=C/C(=O)O)c(OCC)n1`, for which the survival is inactive: 76%.

Turning to `CCN(CC)c1ccc(NC(=O)CN2CCN(c3ccccc3OC)CC2)cc1`, the survival is inactive: 88%.

For `Oc1c(C(c2ccccc2)N2CCOCC2)sc2nc(-c3ccco3)nn12` (stereo not drawn), the survival was inactive: 69%.

Regarding `CCc1nc2nc(C)c(NS(=O)(=O)c3ccc(C(C)(C)C)cc3)c(=O)n2[nH]1`, the survival was inactive: 86%.

In the case of `CCOC(=O)c1sc2ncn(CC(=O)Nc3ccc(OCC)cc3)c(=O)c2c1C`, the survival was inactive: 59%.

In the case of `COc1ccc(-c2nc(C)c(CCNS(=O)(=O)c3cc(Cl)ccc3Cl)s2)cc1`, the survival is inactive: 66%.

As to `CCc1ccc(S(=O)(=O)Nc2cc3c(C(=O)OCc4ccccc4)c(C)oc3c3ccccc23)cc1`, the survival was inactive: 60%.

Turning to `Cc1c(C(=O)Nc2cccc(C(F)(F)F)c2)oc2ccc3c(c12)C(=O)CC(C)(C)O3`, the survival was inactive: 84%.

Turning to `CCc1nn2c(=O)cc(COC(=O)COc3ccc(OC)cc3)nc2s1`, the survival was inactive: 84%.

In the case of `COC(=O)CN1C(=O)CSc2ccc(S(=O)(=O)Nc3cc(C)ccc3C)cc21`, the survival is active: 25%.

For the compound `CCC(=O)N1c2ccccc2CC1C(=O)NCCc1ccc(OC)c(OC)c1` (stereo not drawn), the survival was inactive: 99%.

`Cc1cc(C)c(NC(=O)c2sc3nc(C)cc(C)c3c2NC(=O)c2ccccc2)c(C)c1`: the survival is inactive: 62%.

`CCOC(=O)c1c(C)[nH]c(C)c1S(=O)(=O)N1CCC(C(=O)Nc2cc(Cl)ccc2OC)CC1`: the survival was inactive: 70%.

With `CC1=C(c2ccc(C)c(C)c2)S(=O)(=O)NC1=NCc1ccccc1Cl`, the survival is inactive: 81%.

On to `O=C(NC1CCCCC1)C(c1ccc(O)c(O)c1)N(C(=O)Cn1nnc2ccccc21)C1CCCCC1` (stereo not drawn), for which the survival is inactive: 99%.

As to `CCOc1ccc(CCNC(=O)c2cn(C)c3ccc(S(=O)(=O)N4CCCCC4)cc3c2=O)cc1OCC`, the survival is inactive: 101%.

Regarding `COc1ccccc1C(=O)Nc1cccc(C(=O)OCc2cc(=O)n3cc(C)sc3n2)c1`, the survival is inactive: 94%.

Take `Cc1cc(OCC(=O)Nc2ncn[nH]2)ccc1Cl`: the survival was inactive: 64%.

As to `Cc1ccc(S(=O)(=O)N(CC(=O)Nc2ccc3c(c2)OCO3)c2cc(Cl)cc(Cl)c2)cc1`, the survival was inactive: 140%.

Consider `CCOC(=O)Nc1ccc2c(c1)N(CCCN(C)C)c1ccccc1CC2`, for which the survival is inactive: 73%.

`CCN(CC)S(=O)(=O)c1ccc(OC)c(-n2cnnn2)c1`: the survival was inactive: 65%.

In the case of `O=C(NCCC1=CCCCC1)c1ccc2c(c1)N(Cc1cccc(Cl)c1)C(=O)c1ccccc1S2=O` (stereo not drawn), the survival is active: 37%.

`CC(C)CCNC(=O)Cc1ccc(NC(=O)N2CCCCc3ccccc32)cc1`: the survival is inactive: 78%.

With `COc1ccc(CNC(=O)Cn2c(=O)nc(-c3ccccc3)c3ccccc32)cc1OC`, the survival is inactive: 89%.

In the case of `CCCCC(=O)NC1CC(=O)N(c2ccc3c(c2)OCCO3)C1` (stereo not drawn), the survival was inactive: 129%.

Regarding `Cc1c(NC(=O)c2ccc(-c3cccc([N+](=O)[O-])c3)o2)cccc1-c1nc2cc(Cl)ccc2o1`, the survival is inactive: 52%.

In the case of `Cn1c(=O)oc2cc(S(=O)(=O)NCCC(=O)Nc3ccc(F)cc3F)ccc21`, the survival was inactive: 88%.

Consider `CC(=O)c1ccc(N2CCN(C(=O)C3CCCN(S(=O)(=O)c4ccc(Br)s4)C3)CC2)cc1` (stereo not drawn), for which the survival was inactive: 76%.

With `COc1cc(CCC(=O)NCc2ccc3c(c2)CCN3C(=O)c2ccccc2)cc(OC)c1OC`, the survival is inactive: 109%.

With `CCC1CN(S(=O)(=O)c2cc(-c3cc(C)no3)ccc2C)c2cc(C)ccc2O1` (stereo not drawn), the survival is active: 52%.

As for `Cc1nc2c(-c3ccc(F)cc3)c(C)nn2c(C)c1CCC(=O)N1CCN(c2ccccc2)CC1`, the survival is inactive: 67%.

Take `COC(=O)c1cc2oc3ccccc3c2n1Cc1nc(-c2ccc(Cl)cc2)oc1C`: the survival was inactive: 91%.

Consider `O=C(O)CCSc1nc(-c2ccccc2)cc(=O)[nH]1`, for which the survival is inactive: 107%.

Take `CCCCn1c(SCC(=O)c2ccccc2)nc2c(sc3ccccc32)c1=O`: the survival was active: 17%.

Regarding `CCc1ccc(CNC(=O)c2nn(-c3ccc(C)cc3)c(=O)c3c2c2ccccc2n3C)cc1`, the survival is inactive: 145%.

In the case of `O=C(C(F)F)N(Cc1ccccc1)Cc1ccccc1`, the survival was inactive: 75%.

Take `CC(=O)OC1OCCOC1OC(C)=O` (stereo not drawn): the survival is inactive: 85%.

Regarding `CC(C)CC(NS(=O)(=O)c1ccccc1)C(=O)O` (stereo not drawn), the survival was inactive: 77%.

`O=C(CN1C(=O)C(c2ccc(F)cc2)=NC12CCCCCC2)Nc1ccccc1Cl`: the survival is inactive: 84%.

Consider `Cc1cc(C)c(NC(=O)Cn2nc(-c3ccncc3)ccc2=O)c(C)c1`, for which the survival was inactive: 86%.

As to `CCCn1c(=O)n(-c2ccccc2Cl)c(=O)c2sc3ccccc3c21`, the survival was inactive: 95%.

In the case of `CC1=Nc2cc(C(=O)NCc3ccccc3Cl)ccc2Sc2c(C)ccc(C)c21`, the survival was inactive: 79%.

For the compound `COc1ccc(-c2ccc3c(N)c(C(=O)Nc4ccc(C(F)(F)F)cc4)sc3n2)cc1OC`, the survival was inactive: 97%.

On to `COc1ccc(-c2nnc(SCC(=O)NCCc3ccc(OC)c(OC)c3)nc2-c2ccc(OC)cc2)cc1`, for which the survival is inactive: 86%.

On to `Cc1nc2cccnc2n1-c1cccc(C(=O)N2CCN(c3cccc(Cl)c3)CC2)c1`, for which the survival is inactive: 73%.

For `Cc1ccc(C)c(N2CCN(S(=O)(=O)c3cc(-c4cc(C)no4)ccc3C)CC2)c1`, the survival is inactive: 83%.

With `Cc1ccc(-c2nnc(Nc3cccc(Cl)c3)c3ccccc23)cc1S(=O)(=O)N1CCCCC1`, the survival was inactive: 65%.

As for `Cc1ccc(-n2nc(CO)c(C(=O)NCCCCc3ccccc3)n2)cc1C`, the survival is inactive: 113%.

As for `CSc1ccc(CCNC(=O)c2cc(C)nc3c2c(C)nn3-c2ccccc2)cc1`, the survival was inactive: 122%.

Turning to `COc1ccccc1C(=O)NCCn1cc(SCC(=O)Nc2ccccc2F)c2ccccc21`, the survival is inactive: 55%.

As to `COc1ccc(CCNC(=O)C(=O)Nc2ccccc2F)cc1`, the survival was inactive: 67%.

Take `Cc1ccc(CNC(=O)C(=O)Nc2c3c(nn2-c2ccccc2)CSC3)cc1`: the survival was inactive: 71%.

For the compound `C=CCN(CC=C)C(=O)c1ccc(SC)cc1OC`, the survival was inactive: 98%.

`CCOC(=O)c1[nH]c(C)c(CCC(=O)N2CCN(c3cccc(OC)c3)CC2)c1C`: the survival is inactive: 96%.

For `CCCCN(CC)C(=O)CSc1nc2n[nH]c(C)c2c(=N)n1-c1cccc(Cl)c1`, the survival was active: 17%.

As to `CC1CN(C(=O)c2cc3n(n2)C(C(F)(F)F)CC(c2ccco2)N3)CC(C)O1` (stereo not drawn), the survival was inactive: 83%.

On to `Cc1ccc(-c2noc(-c3ccccc3NC(=O)c3ccccc3)n2)cc1`, for which the survival was inactive: 69%.

Take `CCC(=O)N1CCc2cc(Br)cc(S(=O)(=O)CCC(=O)NCc3ccccc3OC)c21`: the survival is inactive: 66%.

Take `Cc1ccc(NC(=O)Cc2ccc(-n3c(C)nc4cccnc43)cc2)c(Cl)c1`: the survival was inactive: 107%.

For the origin of these results see PubChem BioAssay AID463173 (ICCB-Longwood Screening Facility, Harvard Medical School, 2010).
